In all, about 110,000 compounds were measured (“z-score”: median about -0.1, highest 2% from about 2 on). The list shows a part of the results.

Data on 54 molecules can be found in PubChem BioAssay AID488969 (Vanderbilt High Throughput Screening Facility, 2010).

For the experiment, the target named is Metabotropic glutamate receptor 8 (Rattus norvegicus) (UniProt P70579). The experiment can be described thus: rat mGluR8 modulators via GIRK flux, primary screen, cell-based, thallium flux, HTS (AID 488969). The note with it: HEK293 rat mGluR8, GIRK (G protein-gated inwardly rectifying potassium channel) thallium flux, FluoZin2; at 10 µM; stronger effect = higher value.
Chain of UniProt P70579 (P70579 whole entry, looked up): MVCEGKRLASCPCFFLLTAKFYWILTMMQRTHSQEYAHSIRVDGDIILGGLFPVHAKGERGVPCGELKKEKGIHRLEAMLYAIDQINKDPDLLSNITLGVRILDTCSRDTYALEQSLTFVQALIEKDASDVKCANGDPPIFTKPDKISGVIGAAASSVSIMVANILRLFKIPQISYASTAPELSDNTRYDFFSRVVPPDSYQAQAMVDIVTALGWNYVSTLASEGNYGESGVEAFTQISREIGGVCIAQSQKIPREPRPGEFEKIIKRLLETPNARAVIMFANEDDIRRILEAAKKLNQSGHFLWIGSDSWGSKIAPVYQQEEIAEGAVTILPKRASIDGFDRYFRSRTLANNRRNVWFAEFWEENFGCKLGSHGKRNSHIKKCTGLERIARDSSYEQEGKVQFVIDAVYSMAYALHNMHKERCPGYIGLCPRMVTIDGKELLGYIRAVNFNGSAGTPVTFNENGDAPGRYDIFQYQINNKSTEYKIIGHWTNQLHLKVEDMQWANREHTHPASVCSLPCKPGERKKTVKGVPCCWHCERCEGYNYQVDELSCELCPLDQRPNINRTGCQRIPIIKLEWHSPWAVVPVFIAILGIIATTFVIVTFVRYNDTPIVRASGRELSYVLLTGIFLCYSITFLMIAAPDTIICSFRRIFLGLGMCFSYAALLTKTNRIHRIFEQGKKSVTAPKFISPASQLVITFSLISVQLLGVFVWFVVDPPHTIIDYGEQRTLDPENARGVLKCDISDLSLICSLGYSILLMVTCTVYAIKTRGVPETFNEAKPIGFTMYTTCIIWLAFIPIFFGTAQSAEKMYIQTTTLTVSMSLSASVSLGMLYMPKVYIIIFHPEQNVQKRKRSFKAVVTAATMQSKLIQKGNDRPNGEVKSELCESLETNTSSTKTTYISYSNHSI
Regarding `O=C(c1cccc(N2CCCC2=O)c1)N1CCC2(CC1)OCCO2`, the z-score was -0.18. For the molecule `CC1CCCCN1C(=O)c1ccc(N2CC3CC(C2)c2cccc(=O)n2C3)c([N+](=O)[O-])c1` (centres undefined), the z-score was -0.624. For the molecule `Cc1nn(C)cc1/C=C1/CC2C3CC=C4CC(O)CCC4(C)C3CCC2(C)C1=O` (centres undefined), the z-score is -1.25. As for `CC(=NCCC(c1ccccc1)c1ccccc1)c1c(O)n(C)c(=O)n(C)c1=O`, the z-score was -0.488. On to `Cc1ccn2nc(S(=O)(=O)Nc3c(F)cccc3F)nc2n1`, for which the z-score is -0.257. For `O=C1CC(=O)N(c2ccc3c(c2)OCO3)C(=O)N1` the value was -0.136; for `Cc1ccc(-n2c(O)c(C=NCCN3CCOCC3)c(=O)[nH]c2=O)cc1`, 0.016. In turn, `CSc1ncc(Cl)c(C(=O)O)n1` returned a z-score of 0.0882.

The molecule `O=C(COc1ccc(S(=O)(=O)N2CCCCC2)cc1)N1CCN(Cc2ccccc2)CC1` returned a z-score of -0.131. Under `O=c1[nH]c(=O)n(-c2cccc(Cl)c2)c(O)c1/C=N/c1ccccn1` stands -0.309; under `COc1cc(/C=N/NP(=S)(c2ccccc2)c2ccccc2)ccc1O`, 0.964.

`COc1ccccc1N(CC(=O)NC1CCCCC1)C(=O)c1cnn(C(C)C)c1` gave a z-score of 0.21.

Take `NC(=O)CN1C2CCC1CC(NC(=O)C1CC1)C2` (centres undefined): the z-score is -0.789.

Regarding `CCOC(=O)[C@]1(C#N)[C@@H]2C=CC(C(C)=O)=CN2[C@@H](C(N)=O)[C@@H]1c1ccsc1`, the z-score turned out to be 0.236. In turn, `C=CCn1c(O)c(C(C)=NC2CC2)c(=O)[nH]c1=O` had a z-score of 0.18. `COc1ccc(NC(=O)CN2C3CCC2CC(O)(c2cccnc2)C3)cc1OC` (centres undefined) yielded a z-score of -0.531.

`COCCOC(=O)C1=C(N)Oc2c(c(=O)oc3ccccc23)C1c1ccncc1` (centres undefined) displayed a z-score of -0.453. Under `C[C@H]1CCC[C@@H](O)CCC/C=C/c2cc(O)cc(O)c2C(=O)O1` stands -0.472; under `Cc1ccc(/C=C2/C(=O)NC(=O)N(C)C2=O)cc1`, 1.07; under `CC1CN(CCc2ccccc2)CC(C)O1` (centres undefined), 0.104. `O=C1C2CCCN2C(c2ccc(Cl)c(Cl)c2)N1c1ccccn1` (centres undefined) had a z-score of -0.0899. In turn, `CN(C)C(=O)Oc1cccc(OCc2n(C)c3ccccc3[n+]2C)c1` yielded a z-score of -0.202.

With `NCCc1c[nH]c2ccc(F)cc12`, the z-score came to 0.208. Under `Cc1ccccc1-n1c(O)c(C=Nc2ccc(N(C)C)cc2)c(=O)[nH]c1=O` stands -1.21; under `CC(=O)c1cccc(OCC(O)CN2CC=C(c3ccccc3)CC2)c1` (centres undefined), -0.649; under `Cc1ccc(/C=C2/C(=O)NC(=O)N(CCc3ccc(F)cc3)C2=O)s1`, -0.392. For `c1ccc2c(c1)CNc1ccccc1O2` the value was 0.371. Under `O=C(c1cccn2c(=O)c3cc(Cl)ccc3nc12)N1CCC2(CC1)OCCO2` stands -0.0541; under `C=CC1CN2CCC1CC2[C@@H](OC(=O)c1ccc(OC)cc1)c1ccnc2ccccc12` (some centres undefined), -0.885; under `O=P(NS(=O)(=O)c1ccc(Cl)cc1)(Oc1ccccc1)Oc1ccccc1`, 0.386. The molecule `NC(=O)C1(N2CCCCC2)CCN(Cc2ccccc2)CC1` returned a z-score of 0.711. Under `CCOC(C(=O)OCC(O)CN(CC)CC)(c1ccccc1)c1ccccc1` (centres undefined) stands 0.39; under `CC(c1ccc(F)cc1)n1cc(C(=O)NCc2ccc3c(c2)OCO3)nn1` (centres undefined), 0.0962. In the case of `Cc1cccc(-n2c(-c3ccc([N+](=O)[O-])cc3)nc3ccccc3c2=O)c1`, the z-score is -0.131.

Turning to `c1ccc(-c2[nH]c(-c3ccccc3)[n+](CC3CO3)c2-c2ccccc2)cc1` (centres undefined), the z-score was -0.603. For the molecule `C#CCN1C(=O)C2(C(C#N)=C(N)OC(C)=C2C(=O)OCc2ccccc2)c2ccccc21` (centres undefined), the z-score is -0.604.

`CN1CC=C2C(C#N)=C(N)C(C#N)(C#N)C(c3ccncc3)C2C1` (centres undefined) showed a z-score of -0.434. In turn, `NC(=O)c1c(NC(=O)c2ccc(S(=O)(=O)N(CCCl)CCCl)cc2)sc2c1CCCCC2` displayed a z-score of -0.204. Turning to `CC1CN(C)C(C)(C)CC1(O)c1ccccc1` (centres undefined), the z-score was determined as 0.254. For `O=c1c(C=NCc2cccs2)c(O)n(C2CCCCC2)c(=O)n1C1CCCCC1`, the z-score is -0.421. Under `Cc1ccc(-n2c(C)cc(/C=C3\C(=O)NC(=O)N(C)C3=O)c2C)cc1C` stands -0.325; under `Clc1ccccc1Nc1ncnc(-n2cccc2)n1`, -0.0163; under `CCC12CN3CC(CC)(CN(C1)C3c1cccnc1)C2=O` (centres undefined), -0.395.

In turn, `CN1c2ccc([N+](=O)[O-])cc2CC2(C(=O)NC(=O)N(c3ccccc3)C2=O)C1c1ccccc1` (centres undefined) registered a z-score of -0.241. Under `COc1ccc(-n2c(O)c(C(C)=NCc3ccco3)c(=O)[nH]c2=O)cc1` stands -0.0453; under `O=C(C1CCN(S(=O)(=O)c2ccccc2)CC1)N1CCC2(CC1)OCCO2`, 0.255; under `O=C(COC(=O)Cc1ccccc1)Nc1ncc(Cl)cc1Cl`, -0.26. Molecule `CCOC(=O)[C@@]12C(=O)C(=O)N[C@]1(c1ccccc1)C1OCCCC12` (some centres undefined) showed a z-score of -0.17. Under `C=CCC1(CN2CCCC2=O)C(=O)NC(=O)NC1=O` stands -0.124.

For `CCc1ccc(C(=O)C23CN4CN(CN(C4)C2)C3)cc1`, the z-score worked out at 0.149. Turning to `COc1ccc(C(C)=O)cc1CC(C(=O)c1ccc(F)cc1)N(C)C` (centres undefined), the z-score is -0.169. Consider `Cc1ccc(CS(=O)(=O)CCC(=O)N2CCC3(CC2)OCCO3)cc1`, for which the z-score was -0.0811. Under `O=C1Nc2ccccc2/C1=C/c1cnc[nH]1` stands -0.0242; under `COC(=O)C(C)Oc1cc(C)cc2oc(=O)c3c(c12)CCC3` (centres undefined), -2.81.
